Results: PubChem BioAssay AID1030 (National Center for Advancing Translational Sciences (NCATS), 2008)
Hit rate of the full screen: of about 220,000 compounds, about 16,000 (7.3%) were called active. The shares of active, inactive and inconclusive entries below differ from those in the screen. Calls come from the whole dose curve; as a rule, active = well fitted inhibition curve with a large enough effect (not every such curve was filed as active); inconclusive = small, poorly fitted or top-dose-only effect, or another doubt; inactive = no such curve, though single readings can be large or run the other way. Potencies of inconclusive entries are left out as doubtful fits.

Target: Aldehyde dehydrogenase 1A1 (Homo sapiens) (UniProt P00352)
Chain of UniProt P00352 (P00352 whole entry, looked up): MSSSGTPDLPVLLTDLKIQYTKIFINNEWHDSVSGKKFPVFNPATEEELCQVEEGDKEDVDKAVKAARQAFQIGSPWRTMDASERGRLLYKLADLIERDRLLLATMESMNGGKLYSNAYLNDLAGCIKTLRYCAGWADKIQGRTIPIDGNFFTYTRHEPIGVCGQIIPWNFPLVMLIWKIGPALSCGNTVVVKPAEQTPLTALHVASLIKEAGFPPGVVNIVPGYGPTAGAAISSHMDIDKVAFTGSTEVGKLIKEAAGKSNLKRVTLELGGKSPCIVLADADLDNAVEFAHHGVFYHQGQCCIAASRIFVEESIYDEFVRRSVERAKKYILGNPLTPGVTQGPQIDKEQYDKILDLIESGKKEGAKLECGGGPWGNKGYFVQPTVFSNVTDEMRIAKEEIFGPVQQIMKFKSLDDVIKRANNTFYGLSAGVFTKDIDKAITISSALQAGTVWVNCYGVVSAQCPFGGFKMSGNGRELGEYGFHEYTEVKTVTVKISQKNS
Test: qHTS Assay for Inhibitors of Aldehyde Dehydrogenase 1 (ALDH1A1);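 for activity, negative = inhibition: plate controls were no enzyme wells and a reference inhibitor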
Settings: Purified ALDH1A1, NADH fluorescence, propionaldehyde substrate; series mostly up to 75.3 µM
Potency is the fitted concentration of half-maximal effect; tags give direction and shape of the fitted curve.

SMILES	Potency	activity, negative = inhibition
CS(=O)(=O)N(CC(=O)N1CCN(c2ccccc2F)CC1)C1CCCCC1	active: 7.94 µM	–
COc1cccc(Cn2nnc(C(=O)Nc3cc(C)ccc3OC)c2N)c1	inconclusive [inhibitor, partial curve]	–
C=CCNC(=S)Nc1nc2c(cc1C(=O)OCC)CCCC2	inconclusive [inhibitor, partial curve]	–
Nc1ccccc1C(=O)Nc1cccc(C(=O)O)c1	inconclusive [inhibitor, partial curve]	–
CC(=O)c1ccc(-c2nnc(CCC(=O)N(C)Cc3cccc4cnccc34)o2)s1	inconclusive [inhibitor, single point]	–
Cc1c(Cl)cccc1NC(=S)N1CCN(S(=O)(=O)c2cccs2)CC1	inconclusive [inhibitor, partial curve]	–
O=C(Nc1ccccc1O)c1csc2c1CCCC2	inactive	–
N#Cc1nc(-c2ccc(Cl)cc2)oc1N1CCCCC1	inconclusive [inhibitor, partial curve]	–
O=C(O)CN1CCCC1=Nc1ccccc1	active: 89.1 µM	–
Fc1ccccc1Cc1noc(CN2CCC(OCc3cccnc3)CC2)n1	inconclusive [inhibitor, partial curve]	–
CCN(CC)CCNc1nc(-c2ccc(OC(F)F)cc2)c(C)s1	inactive	–
CCOc1ccccc1C(=O)NC1CC2CCCC(C1)N2Cc1nnnn1Cc1ccco1 (stereo not drawn)	active: 1 µM	–
CN(C)c1ccc(C(=O)/C=C/c2ccco2)cc1	active: 8.91 µM	–
Cc1csc2c(NCCCN3CCOCC3)ncnc12	inactive	–
NS(=O)(=O)c1ccc(N2C(=O)C3C4CC(C(Br)C4Br)C3C2=O)cc1 (stereo not drawn)	inactive	–
CC(C)(C)N1C(=O)c2ccc(C(=O)O)cc2C1=O	inactive	–
O=C(NCCc1ccccn1)c1cccnc1Oc1ccc(Cl)cc1	inactive	–
OCCNc1c2ccccc2nc2ccccc12	inconclusive [inhibitor, single point]	–
Cc1ccc(NC(=O)CCC(=O)N/N=C/c2cccs2)cc1	inactive	–
O=C(O)c1ccc(Cl)c2c1C1C=CCC1C(c1ccccn1)N2 (stereo not drawn)	inconclusive [inhibitor, partial curve]	–
COc1ccc(S(=O)(=O)N(C)c2ccc(OCC(=O)Nc3cc(C)on3)cc2)cc1	inconclusive [inhibitor, single point]	–
COc1ccc(NC(=O)Cn2cnc3ccccc3c2=O)cc1OC	inactive	–
CCc1noc2c1/C(=N\O)CC(c1ccccc1)C2 (stereo not drawn)	inactive	–
CCCCc1ccc(-c2csc(/C(C#N)=C/c3ccc(C)o3)n2)cc1	inactive	–
CCOCCCNC(C(=O)Nc1ccc(OC)c(Cl)c1)c1ccccc1 (stereo not drawn)	active: 2.24 µM	–
CN(C)S(=O)(=O)c1cc(C(=O)NCCCn2ccc3ccccc32)ccc1Cl	inconclusive [inhibitor, partial curve]	–

SMILES	Potency	activity, negative = inhibition
O=C(NCc1ccco1)C(c1cccs1)N(Cc1ccccc1)C(=O)Cn1nnc2ccccc21 (stereo not drawn)	inactive	–
Cc1cccc(Nc2ncnc3c2cnn3Cc2ccccc2)c1	active: 22.4 µM	–
CCCc1cc(NCCCCO)n2c(nc3ccccc32)c1C#N	inconclusive [inhibitor, partial curve]	–
O=C(NC1=NC2CCCCC2N1)c1ccccc1 (stereo not drawn)	inactive	–
COc1ccc(C2CC(c3c(O)cc(C)oc3=O)=NCCS2)c(OC)c1 (stereo not drawn)	inconclusive [inhibitor, single point]	–
CCN(CC)S(=O)(=O)c1cc(C(=O)OCC(=O)c2ccc3c(c2)NC(=O)CO3)ccc1Cl	inconclusive [inhibitor, single point]	–
Cc1ccc(N(C(=O)CCl)C(C(=O)NC2CCCCC2)c2cccnc2)cc1C (stereo not drawn)	inactive	–
COC(=O)c1cccc(NS(=O)(=O)c2cccs2)c1C	inconclusive [inhibitor, single point]	–
Cn1c(=O)c2c(SCC(=O)N3CCOCC3)nc(C3CCCCC3)nc2n(C)c1=O	inconclusive [inhibitor, full curve]	–
COc1ccc(Oc2nc(-c3ccccn3)ncc2OC)cc1	inconclusive [inhibitor, partial curve]	–
CN(CC(=O)Nc1ccc(S(=O)(=O)N2CCCC2)cc1)CC(=O)Nc1cccc(F)c1	inconclusive [inhibitor, partial curve]	–
COc1ccc(CNC(=O)[C@H](C)NC(=O)C2CCN(S(=O)(=O)c3ccc(C)cc3)CC2)cc1	inconclusive [inhibitor, single point]	–
CCc1ccccc1NC(=O)c1cc(=O)c2ccccc2o1	inactive	–
Cc1onc(-c2ccccc2)c1C(=O)Nc1nnc(N2CCCCCC2)s1	inconclusive [inhibitor, single point]	–
COc1ccc2cc(C(=O)NC3CCCCC3)c(=O)oc2c1	inconclusive [inhibitor, full curve]	–
COCCNCC(=O)Nc1ccc(C)c(S(=O)(=O)N2CCCCC2)c1	inactive	–
COc1ccc(CNc2nc(SCC(=O)NCc3ccco3)nc3ccccc23)cc1	inconclusive [inhibitor, partial curve]	–
CN1CCN(C(=O)C2=C[C@@H](c3ccccc3)C[C@@H](OCCCCO)O2)CC1	inconclusive [inhibitor, partial curve]	–
Cc1ccc(NC(=O)C[n+]2ccn(C3=C([O-])c4ccccc4C3=O)c2)cc1	inconclusive [inhibitor, single point]	–
CC(C)OC(=O)n1c(=S)oc2ccccc21	active: 7.08 µM	–
Fc1ccc(F)c(C2=NNC(=Nc3ccccc3F)SC2)c1	active: 15.8 µM	–
COc1ccc(/C=C(\C#N)C(=O)C(C)(C)n2cncn2)cc1	inactive	–
N#Cc1ccc2ccn(CC(=O)NCc3ccccc3)c2c1	inconclusive [inhibitor, partial curve]	–
O=C(Nc1nc(-c2ccccn2)cs1)c1ccc(Cl)s1	inconclusive [inhibitor, single point]	–
O=C(Cc1ccc([N+](=O)[O-])cc1)N/N=C/c1ccc([N+](=O)[O-])o1	inconclusive [inhibitor, single point]	–
CCOCCCn1c(=S)[nH]c2cc(C(=O)NCC(OC)OC)ccc2c1=O	active: 8.91 µM	–

SMILES	Potency	activity, negative = inhibition
Cc1ccc(S/C(=N\S(=O)(=O)c2ccc(Cl)cc2)c2ccccc2)cc1	inconclusive [inhibitor, single point]	–
CN(C)CCCN(Cc1ccccc1)C(=S)NCc1ccccc1	inconclusive [inhibitor, single point]	–
Cc1cc(OC(=O)c2ccc(S(=O)(=O)N(C)C)cc2)c([N+](=O)[O-])c(=O)[nH]1	inactive	–
CCCN1C(=O)C(NC(C)=O)c2ccccc21 (stereo not drawn)	active: 0.126 µM	–
CCN(CC(=O)O)C(=O)c1cccnc1	–	inactive: 6.91% [at 13.5 µM]
CCOC(=O)c1cnc(SCc2ccccc2)nc1N	inconclusive [inhibitor, partial curve]	–
COc1ccc(CCNc2cc(N3CCN(C(=O)c4ccc(C)cc4)CC3)ccc2[N+](=O)[O-])cc1OC	active: 8.91 µM	–
COC(c1ccccc1)c1nnc(CCC(=O)NCCC(C)C)o1 (stereo not drawn)	inactive	–
Cc1ccc(-c2nc(CS(=O)(=O)CC(=O)NCCCN3CCN(C)CC3)c(C)o2)cc1	inconclusive [inhibitor, single point]	–
O=C(Cc1cccs1)NCCc1cn2ccccc2n1	inconclusive [inhibitor, single point]	–
c1ccc2c(c1)OCC(c1csc3ncnc(N4CCOCC4)c13)O2 (stereo not drawn)	inactive	–
CCOC(=O)N1CCN(c2nc(C)c3c(n2)CCCC3=O)CC1	inconclusive [inhibitor, partial curve]	–
O=C(CSCc1c(Cl)cccc1Cl)NCc1ccco1	inconclusive [inhibitor, single point]	–
Cc1nonc1NC(=O)c1ccc(Cl)c(S(=O)(=O)N2CCCCC2)c1	inactive	–
C=CCn1c(SCc2c(C(=O)OC)sc(N)c2C(=O)OC)nnc1-c1ccc(Br)cc1	active: 25.1 µM	–
Cn1c(NC(=O)c2ccc3c(c2)OCO3)cc(=O)n(C)c1=O	inconclusive [inhibitor, partial curve]	–
Cc1ccc(NC(=O)c2oc3c(c2C)C(=O)CC(C)(C)C3)cc1	inconclusive [inhibitor, single point]	–
S=C(NCc1cccnc1)Nc1ccc(Cl)c(Cl)c1	inconclusive [inhibitor, partial curve, poor fit]	–
Cc1cccc(OCC(=O)N2CCOCC2)c1	inactive	–
CN(C)Cc1nc2c(c(=O)[nH]1)C(C)(C)Cc1ccccc1-2	inconclusive [inhibitor, partial curve]	–
COc1ccc(C(=O)/C=C/Nc2ccccn2)cc1	inconclusive [inhibitor, single point]	–
c1coc(Cn2nnnc2CN2CCN(C3CCCC3)CC2)c1	inconclusive [inhibitor, partial curve]	–
CCOC(=O)c1oc2ccccc2c1NC(=O)c1cccc(OC)c1OC	inconclusive [inhibitor, partial curve]	–
CCc1nnc(SCC(=O)NC2CCCC2)nc1CC	inactive	–
Cc1cc(NC(=O)c2c(-c3ccccc3Cl)noc2C)no1	inactive	–
COc1ccc(CCN2C(=O)C3C4C=CC(C3C2=O)C2C(=O)N(CCc3ccc(OC)c(OC)c3)C(=O)C42)cc1OC (stereo not drawn)	inactive	–
